Experiments:
[1] = biological target: T1, 41BB on HT1080-41BB cells (UniProt Q07011 24-255); test: flow cytometry, HT1080 41BB+ cells (negative control) incubated with His-tagged PD1-CD70 30 min on ice, detected with anti PD1-PE
T1 construct: whole, on cells; also called 4-1BB (CD137)
Protocol: (§1) The cells were incubated with different concentrations of His-tagged PD1-CD70 protein (SEQ ID NO: 5) for 30 minutes on ice, followed by immunostaining with anti-PD-1 antibody and flow cytometry analysis. GMFI values were used to create a binding curve graph with a GraphPad Prism software.
(§2) Methods—For expression assays, cells (0.5M cells/sample) were immune-stained with the indicated antibodies, followed by Flow cytometry analysis. For binding assays, cells were pre-incubated with human Fc blocker for 15 minutes on ice prior to incubation with different concentrations of His-tagged PD1-CD70 protein (SEQ ID NO: 5) for 30 minutes on ice, followed by immuno-staining against the “free” arm of the molecule, fixation and analysis by flow cytometry.

[2] = biological target: T2, CD27 on cells (HT1080-CD27 cells; human T cells) (human, UniProt P26842 20-260); test: flow cytometry, HT1080-CD27 cells incubated with His-tagged PD1-CD70 30 min on ice, detected with anti PD1-PE; curve 'Specific binding (PD1-CD70)'
T2 construct: whole, on cells; also called CD27 receptor; HT1080-27
T2 sequence (looked up): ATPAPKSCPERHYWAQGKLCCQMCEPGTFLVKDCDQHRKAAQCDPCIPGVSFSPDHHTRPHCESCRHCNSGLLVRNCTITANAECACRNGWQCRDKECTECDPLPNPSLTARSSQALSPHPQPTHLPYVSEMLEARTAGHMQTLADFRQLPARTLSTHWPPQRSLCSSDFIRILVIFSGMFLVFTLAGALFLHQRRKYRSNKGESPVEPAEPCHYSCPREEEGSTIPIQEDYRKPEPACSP
Protocol: as §1, §2

PDL1 on DLD1-PDL1 cells = biological target: T3, PDL1 on DLD1-PDL1 cells (human, UniProt Q9NZQ7); test: flow cytometry, DLD1-PDL1+ cells incubated with His-tagged PD1-CD70 30 min on ice, detected with anti CD70-PE; curve 'Specific binding (PD1-CD70) to DLD1-PDL1+ cells'
T3 construct: whole, on cells
Protocol: The cells were incubated with different concentrations of His-tagged PD1-CD70 protein (SEQ ID NO: 5) for 30 minutes on ice, followed by immunostaining with anti-CD70 antibody and flow cytometry analysis. GMFI values were used to create a binding curve graph with a GraphPad Prism software.
as §2

Sequence of PDL1 on DLD1-PDL1 cells (Q9NZQ7 19-290): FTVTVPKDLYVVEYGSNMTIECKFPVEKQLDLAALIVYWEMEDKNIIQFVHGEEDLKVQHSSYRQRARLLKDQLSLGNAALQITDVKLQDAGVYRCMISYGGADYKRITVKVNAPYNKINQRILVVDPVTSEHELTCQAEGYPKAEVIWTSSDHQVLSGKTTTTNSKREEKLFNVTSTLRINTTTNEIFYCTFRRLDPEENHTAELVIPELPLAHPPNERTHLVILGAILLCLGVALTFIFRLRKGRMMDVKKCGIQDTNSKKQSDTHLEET
T1 sequence (Q07011 24-255 limits assumed): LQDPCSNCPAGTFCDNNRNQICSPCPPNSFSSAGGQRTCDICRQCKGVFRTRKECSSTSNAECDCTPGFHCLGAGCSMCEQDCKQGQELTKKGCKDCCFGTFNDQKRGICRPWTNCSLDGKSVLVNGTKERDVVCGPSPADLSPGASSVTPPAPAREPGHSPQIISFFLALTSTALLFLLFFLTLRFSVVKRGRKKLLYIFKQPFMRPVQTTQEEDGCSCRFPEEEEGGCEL

B1: His-tagged PD1-CD70 fusion protein (SEQ ID NO: 5) (other)
chain: HHHHHHPGWF[no letters for about 150 residues]GQRFAQAQQQLPLESLGWDVAELQLNHTGPQQDPRLYWQGGPALGRSFLHGPELDKGQLRIHRDGIYMVHIQVTLAICSSTTASRHHPTTLAVGICSPASRSISLLRLSFHQGCTIASQRLTPLARGDTLCTNLTGTLLPSRNTDETFFGVQWVRP
notes: Produced in Expi293F cells and purified on a HisTrap column; Glycosylated; also called His-tag PD1-CD70 fusion protein; His-PD1-CD70
[1]
  binding result: no binding (tested: 50 ug/ml)
[2]
  EC50 (read off the curve): ~200 nM
PDL1 on DLD1-PDL1 cells
  EC50 (read off the curve): ~7 nM
